Measurements reported in the supplement of paper PMC10670038.
Where a name gives a salt, the structure may show the parent alone. ± gives the standard deviation of the averaged measurements. Whole data set: some 2,000 compounds, median “relative cell viability vs DMSO, compound + 0.2 uM CuET” near 1, cut for the lowest 2% near 0.25. Some of the results follow.

tested on: TE10; assay: relative cell viability vs DMSO, compound + 0.2 uM CuET (fraction); TE10 is an esophageal squamous carcinoma line; higher = less cytotoxic; details: 2 µM; co-treatment: CuET (bis(diethyldithiocarbamate)copper) 0.2 uM; 48 h
Method: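 TE10 ESCC cells (1,000/well, 384-well plates) were treated with Selleck bioactive library compounds at 2 uM combined with 0.2 uM CuET (copper diethyldithiocarbamate) for 48 h. Viability was read by CellTiter-Glo and expressed relative to DMSO wells. Two technical replicates (A, B).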

CC(C)(C)[N+]([O-])=Cc1ccc(S(=O)(=O)O)cc1S(=O)(=O)O and CC(=O)NS(=O)(=O)c1ccc(N)cc1 [Sulfacetamide Sodium] are within error of each other in relative cell viability: 1.15 ± 0.091 for the first, 0.969 ± 0.09 for the second.

CC(C)OC(=O)C1=CN(C(=O)c2ccc(F)c(F)c2)CC(C)(C)c2c1[nH]c1ccccc21 and COC(=O)C1=C(C#N)NC(C)=C(C(=O)OC(C)C)C1c1cccc([N+](=O)[O-])c1 (stereo unspecified) [Nilvadipine] are within error of each other in relative cell viability: 1.13 ± 0.041 for the first, 1.11 ± 0.1 for the second.

CN1CCN(C(c2ccccc2)c2ccccc2)CC1 [Cyclizine 2HCl] and Cc1ccc(=O)n(-c2ccccc2)c1 [Pirfenidone] are within error of each other in relative cell viability: 1.19 ± 0.01 for the first, 1.15 ± 0.27 for the second.

Compared with Cc1ccc(F)c(NC(=O)Nc2ccc(-c3cccc4[nH]nc(N)c34)cc2)c1 [Linifanib (ABT-869)], CNC(=O)c1cc(Oc2ccc(NC(=O)Nc3ccc(Cl)c(C(F)(F)F)c3)cc2)ccn1 [Sorafenib Tosylate] is higher in relative cell viability: 0.606 ± 0.18 for the first, 1.18 ± 0.095 for the second.

C[C@]12CC[C@@H]3c4ccc(OC(=O)c5ccccc5)cc4CC[C@H]3[C@@H]1CC[C@@H]2O [Estradiol Benzoate] and Cc1ccccc1C(C(=O)NC1CCCCC1)N(C(=O)Cn1ccnc1C)c1cccc(F)c1 (stereo unspecified) are within error of each other in relative cell viability: 1.11 ± 0.042 for the first, 1.09 ± 0.083 for the second.

First: CC[C@@H](C)Nc1cc(C(=O)N[C@H]2C[C@H]3CC[C@@H](C2)N3c2ccc(C(=O)C3CC3)cn2)c(C)cc1C(N)=O
Second: COc1cc2nccc(Oc3ccc(NC(=O)NC4CC4)c(Cl)c3)c2cc1C(N)=O [Lenvatinib (E7080)]
The relative cell viability of the first is lower: 0.505 ± 0.04 for the first, 1.55 ± 0.36 for the second.

First: Cc1ccc(NC(=O)c2cccc(C(C)(C)C#N)c2)cc1Nc1ccc2ncn(C)c(=O)c2c1
Second: Cc1ccc(C(=O)Nc2ccc(CN3CCN(C)CC3)c(C(F)(F)F)c2)cc1C#Cc1cnc2[nH]ncc2c1
The relative cell viability of the first is higher: 1.09 ± 0.013 for the first, 0.5899 ± 0.0034 for the second.

Going from OCCN(CCO)c1nc(N2CCCCC2)c2nc(N(CCO)CCO)nc(N3CCCCC3)c2n1 [Dipyridamole] to Cc1c(CN2CCN(C(=O)[C@H](C)O)CC2)sc2c(N3CCOCC3)nc(-c3cnc(N)nc3)nc12, the relative cell viability falls from 1.13 ± 0.091 to 0.495 ± 0.091.

CC(C)OC(=O)OCOP(=O)(CO[C@H](C)Cn1cnc2c(N)ncnc21)OCOC(=O)OC(C)C [Tenofovir Disoproxil Fumarate] and Cc1cccc(CC(=O)N2CCc3c2ccc(-c2cn(C)c4ncnc(N)c24)c3F)n1 are within error of each other in relative cell viability: 1.27 ± 0.19 for the first, 1.16 ± 0.072 for the second.

COc1ccc(-n2c(SCCCN3C(=O)c4cccc5cccc(c45)C3=O)nnc2-c2ccncc2)cc1 and CN(C(Cc1ccc(OS(=O)(=O)c2cccc3cnccc23)cc1)C(=O)N1CCN(c2ccccc2)CC1)S(=O)(=O)c1cccc2cnccc12 (stereo unspecified) are within error of each other in relative cell viability: 0.995 ± 0.085 for the first, 0.992 ± 0.046 for the second.

First: Cc1c(-c2cnccn2)ssc1=S [Oltipraz]
Second: Cc1ncc(-c2ccnc(Nc3ccc(S(C)(=O)=O)cc3)n2)n1C(C)C
The relative cell viability of the first is lower: 0.787 ± 0.064 for the first, 0.949 ± 0.042 for the second.

N[C@@H](Cc1cc(I)c(Oc2ccc(O)c(I)c2)c(I)c1)C(=O)O [Liothyronine Sodium] and COc1ccc2cc([C@H](C)C(=O)O)ccc2c1 [Naproxen] are within error of each other in relative cell viability: 1.05 ± 0.19 for the first, 1.11 ± 0.12 for the second.

COc1ccc(C2CC(=O)c3c(O)cc(OC4OC(COC5OC(C)C(O)C(O)C5O)C(O)C(O)C4O)cc3O2)cc1OC (stereo unspecified) [Methyl-Hesperidin] and OCc1ccccc1O[C@@H]1O[C@H](CO)[C@@H](O)[C@H](O)[C@H]1O [Salicin] are within error of each other in relative cell viability: 1.16 ± 0.051 for the first, 1.18 ± 0.029 for the second.

O=C(Oc1cc(S(=O)(=O)c2ccccc2)ccc1[N+](=O)[O-])c1ccc(Cl)cc1 and CN(C)C(=O)c1ccc(S(=O)(=O)c2ccc(NC(=O)C(C)(O)C(F)(F)F)c(Cl)c2)cc1 (stereo unspecified) are within error of each other in relative cell viability: 1.04 ± 0.07 for the first, 1.2 ± 0.14 for the second.

CN(C)C(=O)[C@H](O)[C@H](Cc1ccccc1)NC(=O)c1cc2cc(Cl)ccc2[nH]1 and CN1CCc2c(c3ccccc3n2Cc2ccc(C(=O)NO)cc2)C1 [Tubastatin A] are within error of each other in relative cell viability: 1.21 ± 0.28 for the first, 1.375 ± 0.0024 for the second.

Going from CNc1nc(Nc2cn(C(C)(C)C#N)nc2C)ncc1C(F)(F)F to CN(c1ccccc1CNc1nc(Nc2ccc3c(c2)CC(=O)N3)ncc1C(F)(F)F)S(C)(=O)=O, the relative cell viability falls from 1.16 ± 0.09 to 0.709 ± 0.029.

COCCCN1CCC(NC(=O)c2cc(Cl)c(N)c3c2OCC3)CC1 [Prucalopride Succinat] and Cc1cnc(-c2cc(N3CCN(C(=O)CCS(C)(=O)=O)CC3)ncc2Cl)c(C)c1 are within error of each other in relative cell viability: 1.15 ± 0.088 for the first, 1.14 ± 0.09 for the second.

COCCCN1CCC(NC(=O)c2cc(Cl)c(N)c3c2OCC3)CC1 [Prucalopride] and O=C(CCCN1CCN(c2ccccn2)CC1)c1ccc(F)cc1 [Azaperone] are within error of each other in relative cell viability: 1.19 ± 0.14 for the first, 1.245 ± 0.0024 for the second.

O=C(Nc1ccncc1)c1cc([N+](=O)[O-])ccc1Cl and CNC(=O)c1cc(Oc2ccc(NC(=O)Nc3ccc(Cl)c(C(F)(F)F)c3)cc2)ccn1 [Sorafenib] are within error of each other in relative cell viability: 1.18 ± 0.18 for the first, 1.09 ± 0.05 for the second.

C[C@H](CCC(=O)O)[C@H]1CC[C@H]2[C@@H]3[C@@H](O)C[C@@H]4C[C@H](O)CC[C@]4(C)[C@H]3CC[C@]12C [Ursodiol] and C[C@]12CCC(=O)C=C1[C@@H]1C[C@@H]1[C@H]1[C@@H]3[C@@H]4C[C@@H]4[C@@]4(CCC(=O)O4)[C@@]3(C)CC[C@@H]12 [Drospirenone] are within error of each other in relative cell viability: 1.07 ± 0.063 for the first, 0.77 ± 0.4 for the second.

C[C@@H](O[C@H]1OCCN(Cc2nn(P(=O)(O)O)c(=O)[nH]2)[C@H]1c1ccc(F)cc1)c1cc(C(F)(F)F)cc(C(F)(F)F)c1 [Fosaprepitant dimeglumine salt] and CNC(=O)c1ccccc1Nc1cc(Nc2ccc(N3CCOCC3)cc2OC)ncc1C(F)(F)F are within error of each other in relative cell viability: 1.056 ± 0.0094 for the first, 0.955 ± 0.1 for the second.

CCC(C)(Oc1ccc(C2(c3ccc(OC(C)(CC)C(=O)O)cc3)CCCCC2)cc1)C(=O)O (stereo unspecified) [Clinofibrate] and CC/C(=C(\c1ccc(O)cc1)c1ccc(OCCNC)cc1)c1ccccc1 [Endoxifen HCl] are within error of each other in relative cell viability: 1.11 ± 0.074 for the first, 1.02 ± 0.02 for the second.

First: CNc1cc(-c2cccc(Cl)c2Cl)nc(N)n1
Second: OCCn1cc(-c2cnc3nnn(Cc4ccc5ncccc5c4)c3n2)cn1
The relative cell viability of the first is lower: 0.84 ± 0.04 for the first, 1.23 ± 0.15 for the second.

CN1CCc2c(c3ccccc3n2Cc2ccc(C(=O)NO)cc2)C1 [Tubastatin A HCl] and N#CCNC(=O)c1ccc(-c2ccnc(Nc3ccc(N4CCOCC4)cc3)n2)cc1 are within error of each other in relative cell viability: 0.979 ± 0.011 for the first, 1.13 ± 0.15 for the second.

First: C=CC(C)(C)c1cc(C=CC(=O)c2ccc(O)cc2)c(OC)cc1O [Licochalcone A]
Second: O=C(/C=C/c1ccc(O)cc1)c1ccc(O)cc1O [Isoliquiritigenin]
The relative cell viability of the first is higher: 1.008 ± 0.0053 for the first, 0.776 ± 0.037 for the second.

CC[C@@H]1C(=O)OC[C@@H]1Cc1cncn1C [Pilocarpine HCl] and Cc1cn([C@H]2C=C[C@@H](CO)O2)c(=O)[nH]c1=O [Stavudine (d4T)] are within error of each other in relative cell viability: 1.21 ± 0.12 for the first, 1.41 ± 0.16 for the second.

CC(C)(CO)c1cc2cc(NC(=O)C3(c4ccc5c(c4)OC(F)(F)O5)CC3)c(F)cc2n1C[C@@H](O)CO and Cc1ccc(-n2nc(C(C)(C)C)cc2NC(=O)NCc2cc(F)ccc2Oc2ccc3c(cnn3CCO)c2)cc1 [Pexmetinib (ARRY-614)] are within error of each other in relative cell viability: 1.19 ± 0.028 for the first, 1.16 ± 0.074 for the second.

OCc1c[nH]c2ccccc12 [Indole-3-carbinol] and c1ccc2c(CC3=NCCN3)cccc2c1 [Naphazoline HCl] are within error of each other in relative cell viability: 1.1 ± 0.11 for the first, 1.2 ± 0.024 for the second.

First: N#Cc1ccc(-c2csc(NN=C3CCCC3)n2)cc1 [Remodelin]
Second: Oc1ccc(-c2nc(-c3ccc(F)cc3)c(-c3ccncc3)[nH]2)cc1
The relative cell viability of the first is lower: 1.04 ± 0.028 for the first, 1.18 ± 0.081 for the second.

CS(=O)(=O)OCCCCOS(C)(=O)=O [Busulfan] and CN1C(CCl)Nc2cc(Cl)c(S(N)(=O)=O)cc2S1(=O)=O (stereo unspecified) [Methyclothiazide] are within error of each other in relative cell viability: 0.973 ± 0.14 for the first, 1.15 ± 0.059 for the second.

Compared with C=C1CC[C@@H]2[C@](C)(CO)[C@H](O)CC[C@@]2(C)[C@@H]1C/C=C1/C(=O)OC[C@H]1O [Andrographolide], CC(=O)OCC(=O)[C@@]12OC(C)(C)O[C@@H]1C[C@H]1[C@@H]3C[C@H](F)C4=CC(=O)C=C[C@]4(C)[C@@]3(F)[C@@H](O)C[C@@]12C [Fluocinonide] is higher in relative cell viability: 0.923 ± 0.02 for the first, 1.09 ± 0.097 for the second.

NCCCC[C@@H]1NC(=O)[C@@H](Cc2ccc(O)cc2)NC(=O)[C@H](CC(=O)O)NC(=O)CNC(=O)[C@H](CCCN=C(N)N)NC1=O [Cyclo(RGDyK)] and COc1cccc2c1C(=O)c1c(O)c3c(c(O)c1C2=O)C[C@@](O)(C(=O)CO)C[C@@H]3O[C@H]1C[C@H](N)[C@@H](O)[C@H](C)O1 [Epirubicin HCl] are within error of each other in relative cell viability: 1.19 ± 0.27 for the first, 0.903 ± 0.067 for the second.

COc1cccc2c1C(=O)c1c(O)c3c(c(O)c1C2=O)C[C@@](O)(C(C)=O)C[C@@H]3O[C@H]1C[C@H](N)[C@H](O)[C@H](C)O1 [Daunorubicin HCl] and CC(=O)O[C@H]1C(=O)[C@@]2(C)[C@H]([C@H](OC(=O)c3ccccc3)[C@]3(O)C[C@H](OC(=O)[C@H](O)[C@@H](NC(=O)c4ccccc4)c4ccccc4)C(C)=C1C3(C)C)[C@]1(OC(C)=O)CO[C@@H]1C[C@@H]2O [Paclitaxel] are within error of each other in relative cell viability: 1 ± 0.077 for the first, 0.994 ± 0.028 for the second.

Going from Cc1ccc(S(=O)(=O)Cc2nc(-c3ccc(C(=O)NCc4cccnc4)cc3)oc2C)cc1 to CN1CCC(Nc2nc(Nc3ccc(Oc4ccccc4)cc3)c3c(=O)[nH]cc(Br)c3n2)CC1, the relative cell viability falls from 0.987 ± 0.007 to 0.658 ± 0.12.

First: CC(C=CC(=O)NO)=CC(C)C(=O)c1ccc(N(C)C)cc1 (stereo unspecified) [Trichostatin A (TSA)]
Second: CC1(C)S[C@@H]2[C@H](NC(=O)[C@H](N)c3ccccc3)C(=O)N2[C@H]1C(=O)O [Ampicillin Trihydrate]
The relative cell viability of the first is lower: 0.177 ± 0.0076 for the first, 1.23 ± 0.043 for the second.

CCN(CC)CC(=O)Nc1c(C)cccc1C [Lidocaine] and CCCN(CCC)CCc1cccc2c1CC(=O)N2 [Ropinirole HCl] are within error of each other in relative cell viability: 1.18 ± 0.015 for the first, 0.62 ± 0.76 for the second.

O=C(O)c1cc(=O)[nH]c(=O)[nH]1 [Orotic acid (6-Carboxyuracil)] and CC1(C)S[C@@H]2[C@H](NC(=O)[C@H](N)c3ccccc3)C(=O)N2[C@H]1C(=O)O [Ampicillin sodium] are within error of each other in relative cell viability: 1.13 ± 0.022 for the first, 1.19 ± 0.13 for the second.

C=C[C@H]1CN2CC[C@H]1C[C@H]2[C@H](O)c1ccnc2ccc(OC)cc12 [Quinine HCl Dihydrate] and Cc1ncc([N+](=O)[O-])n1CC(C)O (stereo unspecified) [Secnidazole] are within error of each other in relative cell viability: 1.05 ± 0.092 for the first, 1.04 ± 0.069 for the second.
